Experimental data: the supplement of paper PMC6206098
± gives the uncertainty stated by the source. Shown are siRNA guide strands that differ only in the seed, positions 2 to 7.

What was measured:
M565 = assay: cell viability relative to lipid-only control; higher = less toxic; conditions: concentration: 10 nM; 96 h; Mus musculus
H460 = assay: as above; conditions: concentration: 10 nM; 96 h; Homo sapiens
HeyA8 = assay: as above; conditions: concentration: 10 nM; 96 h; Homo sapiens
3LL = assay: cell viability relative to siNT1 control; HeyA8 human ovarian and H460 human lung cancer; M565 mouse liver and 3LL mouse lung cancer; siNT1 is a non-toxic control siRNA; higher = less toxic; conditions: concentration: 10 nM; 96 h; Mus musculus
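Throughout, for cell viability relative to lipid-only control: reverse lipid transfection in 384-well plates, in triplicate, of duplexes on a non-toxic 19mer backbone with passenger strand 2′-O-methylated at positions 1 and 2, luminescence viability read-out.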
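Throughout, for cell viability relative to siNT1 control: Luminescence-based viability of cells reverse transfected in 384-well plates with lipid-complexed siRNAs built on a non-toxic 19mer backbone whose passenger strand carries 2′-O-methyl groups at positions 1 and 2, triplicates.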

Row | Sequence | cell viability (M565) [%] | cell viability (H460) [%] | cell viability (HeyA8) [%] | cell viability (3LL) [%]
1 | UGCACCAACAUGUAAACCAAA | 50.2 ± 1.8 | 52 ± 5.8 | 59.6 ± 2.6 | 60.8 ± 10
2 | UCGACUCACAUGUAAACCAAA | 16.5 ± 2.2 | 63.3 ± 3 | 85.2 ± 5.9 | 74.9 ± 21
3 | UCAUAAGACAUGUAAACCAAA | 68 ± 12 | 30.5 ± 7.5 | 88.9 ± 5.7 | 95.1 ± 12
4 | UUUUAUAACAUGUAAACCAAA | 96.4 ± 15 | 80 ± 4.9 | 94.1 ± 7.9 | 98.5 ± 3.3
5 | UCCGUGCACAUGUAAACCAAA | 6.2 ± 1.1 | 23.3 ± 3.6 | 9.26 ± 0.75 | 19.6 ± 2.5
6 | UAAAGGGACAUGUAAACCAAA | 77.1 ± 7.4 | 71.1 ± 9.7 | 92.7 ± 10 | 109 ± 17
7 | UAGAUCUACAUGUAAACCAAA | 57 ± 4.7 | 86.5 ± 12 | 65.9 ± 10 | 65.8 ± 7.1
8 | UGAGACAACAUGUAAACCAAA | 41.5 ± 3.6 | 41.4 ± 3 | 80.5 ± 7.5 | 90.7 ± 25
9 | UCAGGACACAUGUAAACCAAA | 45.7 ± 5.2 | 20.4 ± 2.6 | 42.3 ± 4.4 | 78 ± 16
10 | UGUGACUACAUGUAAACCAAA | 55.7 ± 8.3 | 26.2 ± 4.2 | 21.7 ± 1.2 | 42.5 ± 11
11 | UACGAGGACAUGUAAACCAAA | 84.4 ± 11 | 69.2 ± 12 | 68.7 ± 3.3 | 94.1 ± 14
12 | UCUAUUGACAUGUAAACCAAA | 65.3 ± 12 | 57.6 ± 4.8 | 83.3 ± 1.5 | 93.5 ± 13
13 | UAUCCCCACAUGUAAACCAAA | 12.2 ± 2.3 | 45.8 ± 2.9 | 23.2 ± 2.7 | 3.4 ± 0.49
14 | UAGCAAAACAUGUAAACCAAA | 69.9 ± 8.7 | 85.4 ± 24 | 83.8 ± 1.9 | 100 ± 16
15 | UUGGGGGACAUGUAAACCAAA | 8.81 ± 1.8 | 19 ± 1.7 | 4.28 ± 0.67 | 12.9 ± 4.6
16 | UUUUUAAACAUGUAAACCAAA | 109 ± 7 | 65.8 ± 12 | 96.9 ± 7.9 | 92.9 ± 4.9
17 | UGUGACCACAUGUAAACCAAA | 19.2 ± 3.4 | 24 ± 6.5 | 27.6 ± 1.6 | 27.4 ± 4.5
18 | UCUGACAACAUGUAAACCAAA | 58.6 ± 6.9 | 45.2 ± 2.8 | 86.6 ± 9.5 | 94.2 ± 16
19 | UGGCGUGACAUGUAAACCAAA | 31.7 ± 7.8 | 46.6 ± 9.1 | 17.6 ± 1.9 | 59.6 ± 5.9
20 | UCGUGCUACAUGUAAACCAAA | 92.7 ± 9.7 | 94.1 ± 10 | 75.7 ± 6.9 | 80.6 ± 15

Row | Sequence | cell viability (M565) [%] | cell viability (H460) [%] | cell viability (HeyA8) [%] | cell viability (3LL) [%]
21 | UUGCUCCACAUGUAAACCAAA | 26.8 ± 3.7 | 31.6 ± 2.8 | 49.7 ± 3.3 | 17.4 ± 3.7
22 | UAACUAAACAUGUAAACCAAA | 79.8 ± 18 | 81.9 ± 14 | 90 ± 13 | 88.3 ± 11
23 | UAAGCGGACAUGUAAACCAAA | 47 ± 7.1 | 79.7 ± 18 | 91.1 ± 6 | 81.9 ± 8
24 | UCCCAUAACAUGUAAACCAAA | 70 ± 14 | 27.6 ± 2.9 | 93.5 ± 3.8 | 108 ± 24
25 | UCUUGGAACAUGUAAACCAAA | 76.2 ± 23 | 20.9 ± 3.3 | 10.1 ± 7.6 | 96.3 ± 22
26 | UAUUUAGACAUGUAAACCAAA | 127 ± 26 | 84.4 ± 7.2 | 89.1 ± 14 | 108 ± 20
27 | UAAAGGAACAUGUAAACCAAA | 71.4 ± 16 | 78.8 ± 25 | 98.3 ± 5.9 | 107 ± 8.9
28 | UCAGAUGACAUGUAAACCAAA | 59.2 ± 2.8 | 50.2 ± 3 | 88 ± 10 | 96.7 ± 17
29 | UGAAACCACAUGUAAACCAAA | 28 ± 1.9 | 36.2 ± 2.1 | 12 ± 0.89 | 50.1 ± 13
30 | UUGUAUAACAUGUAAACCAAA | 61.7 ± 16 | 80.2 ± 15 | 88.6 ± 2.1 | 82.3 ± 14
31 | UUCAAUUACAUGUAAACCAAA | 111 ± 9.8 | 64.8 ± 9.1 | 86.5 ± 13 | 94.7 ± 19
32 | UCGACGAACAUGUAAACCAAA | 65.6 ± 10 | 70.3 ± 16 | 84.9 ± 3.5 | 94 ± 21
33 | UUUUUGUACAUGUAAACCAAA | 109 ± 15 | 45.2 ± 5.5 | 74.4 ± 12 | 56.8 ± 4.8
34 | UAGUAAGACAUGUAAACCAAA | 102 ± 2.1 | 67 ± 6.9 | 57 ± 15 | 92.1 ± 7
35 | UCGUUCGACAUGUAAACCAAA | 39.2 ± 7 | 67.2 ± 12 | 54.5 ± 6.3 | 87.1 ± 16
36 | UACCGUUACAUGUAAACCAAA | 21.2 ± 2.9 | 75 ± 11 | 77 ± 6.8 | 82 ± 6.5
37 | UCGCCCAACAUGUAAACCAAA | 44.7 ± 8.4 | 80.5 ± 13 | 83.7 ± 7 | 88.1 ± 9.8
38 | UCAGGUGACAUGUAAACCAAA | 47 ± 3.8 | 57.5 ± 6.8 | 77.8 ± 1.3 | 88.2 ± 14
39 | UAUUUUGACAUGUAAACCAAA | 106 ± 6.8 | 80.4 ± 8.1 | 90.6 ± 9.7 | 109 ± 27
40 | UUCCGCCACAUGUAAACCAAA | 11.4 ± 4.7 | 42.1 ± 1.7 | 27.2 ± 7.8 | 11.4 ± 2.2

Row | Sequence | cell viability (M565) [%] | cell viability (H460) [%] | cell viability (HeyA8) [%] | cell viability (3LL) [%]
41 | UUCGAUAACAUGUAAACCAAA | 101 ± 16 | 79.5 ± 19 | 93.7 ± 11 | 105 ± 18
42 | UCCGGAAACAUGUAAACCAAA | 82.3 ± 18 | 77.9 ± 25 | 84.3 ± 11 | 113 ± 18
43 | UCGACCUACAUGUAAACCAAA | 55.7 ± 6.1 | 66.8 ± 2.6 | 80.4 ± 2.9 | 80 ± 14
44 | UUCAGAGACAUGUAAACCAAA | 38.6 ± 6.4 | 54.5 ± 6 | 72.6 ± 8.6 | 94.7 ± 17
45 | UACGUACACAUGUAAACCAAA | 95.6 ± 3.7 | 66.7 ± 12 | 30.65 ± 0.21 | 80 ± 7.4
46 | UCUAAGGACAUGUAAACCAAA | 59.3 ± 10 | 50.9 ± 3.4 | 82.3 ± 9.4 | 97.8 ± 15
47 | UUACAAAACAUGUAAACCAAA | 102 ± 22 | 99.1 ± 6.6 | 98.5 ± 4.3 | 106 ± 8.4
48 | UUCUUUAACAUGUAAACCAAA | 112 ± 8.2 | 110 ± 11 | 99 ± 15 | 118 ± 10
49 | UGCUGUAACAUGUAAACCAAA | 17.8 ± 2.2 | 94.7 ± 25 | 70.2 ± 7.3 | 75.9 ± 11
50 | UUGAGCGACAUGUAAACCAAA | 68.5 ± 5.3 | 74.6 ± 3.8 | 92.5 ± 7.3 | 88.6 ± 2.6
51 | UUUCGUAACAUGUAAACCAAA | 94 ± 5.5 | 68.2 ± 11 | 99.1 ± 4 | 102 ± 7.1
52 | UAUGUAGACAUGUAAACCAAA | 74.7 ± 4.6 | 77.3 ± 9.5 | 97.2 ± 8.4 | 112 ± 18
53 | UGCGCGUACAUGUAAACCAAA | 21.8 ± 12 | 62.2 ± 2.3 | 49.9 ± 4.8 | 94.5 ± 9.6
54 | UGACAUUACAUGUAAACCAAA | 29 ± 2.4 | 60.6 ± 7.2 | 66.2 ± 2.1 | 92.1 ± 16
55 | UUCUGUCACAUGUAAACCAAA | 26.2 ± 5.2 | 41.4 ± 1.8 | 65.4 ± 7.5 | 37.9 ± 4.1
56 | UUAAGAUACAUGUAAACCAAA | 71.2 ± 11 | 74.9 ± 7 | 52.4 ± 9.5 | 63.5 ± 4.7
57 | UAACACUACAUGUAAACCAAA | 69.7 ± 6.2 | 54.5 ± 3.9 | 61.6 ± 5.4 | 63.2 ± 10
58 | UGACCACACAUGUAAACCAAA | 7.18 ± 2.5 | 32.7 ± 5.7 | 37.4 ± 2.4 | 17.5 ± 0.26
59 | UCACUGUACAUGUAAACCAAA | 26.7 ± 2.9 | 37.1 ± 3.6 | 43.6 ± 3.5 | 73.4 ± 12
